Experimental data: ChEMBL document CHEMBL4888484, “Replenishing the malaria drug discovery pipeline: Screening and hit evaluation of the MMV Hit Generation Library 1 (HGL1) against asexual blood stage Plasmodium falciparum ,using a nano luciferase reporter read-out” (2022)
Hit rate of the full screen: of about 150,000 compounds, about 540 (0.36%) showed an effect of 50% or more. This is one part of the list.

Test system: Plasmodium falciparum
Test: Primary screen in NF54 nanoGlo assay, in single point, at 2uM, 72h; a lower Z score goes with more inhibition
Type: functional, Erythrocyte
Settings: timepoint 72 hour

**Q.** Which results are given for `COc1ccc(C2C(C(=O)N3CCCCC3)c3ccccc3C(=O)N2C)cc1` (stereo not given)?
**A.** % Inhibition: 3%; Z score: -0.47

**Q.** With `Cn1cc([C@@H]2CCCN2c2ccc(F)cn2)cn1` as the compound, how does the “% Inhibition” value read?
**A.** -12%

**Q.** And the Z score?
**A.** 1.24

**Q.** What does the source list for `CC(C(=O)NCC(F)(F)F)N1CCCC(c2ncc[nH]2)C1` (stereo not given)?
**A.** % Inhibition: 11%; Z score: -1.33

**Q.** What does the source list for `N=C(NCc1ccccc1)NS(=O)(=O)c1cccs1`?
**A.** % Inhibition: -2%; Z score: 0.4

**Q.** For `CCCNC(=O)c1cn2c(n1)CC[C@H](c1cc(C(F)(F)F)cc(C(F)(F)F)c1)C2`, which “% Inhibition” value is on record?
**A.** -4%

**Q.** What about the Z score of the same compound?
**A.** 0.64

**Q.** For `Cc1cc(-n2nc(C)c(C)c2C)ccn1`, which “% Inhibition” value is on record?
**A.** 4%

**Q.** What about the Z score of the same compound?
**A.** -0.7

**Q.** `O=C1c2ccc(-c3nc4ccccc4s3)cc2C(=O)N1Cc1ccccc1` was tested. Which “% Inhibition” value did it give?
**A.** 9%

**Q.** And the Z score?
**A.** -1.11

**Q.** Which results are given for `CC(C)(CNC(=O)c1ccsn1)C1(O)CCCC1`?
**A.** % Inhibition: -2%; Z score: 0.36

**Q.** With `CCN(CCCN1C(=O)N[C@@](C)(C(C)C)C1=O)CC(F)(F)F` as the compound, how does the “% Inhibition” value read?
**A.** -1%

**Q.** And the Z score?
**A.** 0.12

**Q.** How did the “% Inhibition” value turn out when `O=C(Cc1ccsc1)N1CC[C@H](n2c(=O)[nH]c3cncnc32)C1` was run?
**A.** -10%

**Q.** And the Z score?
**A.** 0.98

**Q.** What does the source list for `OC(CCNC1CCN(C2CCOC2)CC1)c1ccc(Cl)c(Cl)c1` (stereo not given)?
**A.** % Inhibition: 2%; Z score: -0.33

**Q.** Which results are given for `O=C(c1nc2ccccc2[nH]1)N1CCN(c2ccccc2F)CC1`?
**A.** % Inhibition: -1%; Z score: 0.23

**Q.** Which “% Inhibition” value does the source give for `Cc1ccc(CNC(=O)N2CCCCC[C@@H]2CN2CCCC2)cc1` here?
**A.** -1%

**Q.** And the Z score?
**A.** 0.23

**Q.** `CN1N=C(C(=O)Nc2nc3c(s2)CCC3)CCC1=O` was tested. Which “% Inhibition” value did it give?
**A.** -3%

**Q.** What about the Z score of the same compound?
**A.** 0.53

**Q.** With `CCc1nccn1CC(=O)N1CCC[C@H]1c1nc2c(C)cccc2[nH]1` as the compound, how does the “% Inhibition” value read?
**A.** -6%

**Q.** What about the Z score of the same compound?
**A.** 1.11

**Q.** For `Cc1ccc(F)c(-c2c(-c3ccccc3)ncn2CCc2nnn[nH]2)c1Cl`, which “% Inhibition” value is on record?
**A.** 1%

**Q.** And the Z score?
**A.** -0.12

**Q.** Which “% Inhibition” value does the source give for `CCS(=O)(=O)N1CCC(C(=O)OCC(C)(C)C)CC1` here?
**A.** -12%

**Q.** And the Z score?
**A.** 1.81

**Q.** Which results are given for `CN(C)c1ccc2c(c1)CN(C(=O)C1CCOCC1)CCO2`?
**A.** % Inhibition: 8%; Z score: -1.44

**Q.** Which “% Inhibition” value does the source give for `Cc1ccc(S(=O)(=O)N(C)c2ccc(C(=O)NCc3cccnc3)cc2C)cc1` here?
**A.** -8%

**Q.** What about the Z score of the same compound?
**A.** 1.35

**Q.** Which results are given for `CC(=O)Nc1ccc(C(=O)N(Cc2ccccc2C)C2(C(=O)NCc3ccccc3)CCN(C(C)=O)CC2)cc1`?
**A.** % Inhibition: -10%; Z score: 1.39

**Q.** What does the source list for `Cc1nc2ccnn2c(C)c1C(=O)N1CC[C@H](S(C)(=O)=O)C1`?
**A.** % Inhibition: -9%; Z score: 1.62

**Q.** What does the source list for `NC(=O)c1nc(CNC(=O)[C@@H]2CCC[C@H](O)C2)no1`?
**A.** % Inhibition: 0%; Z score: 0.07

**Q.** What does the source list for `CCc1ccc(C(=O)NC2=N[C@H](c3cccc(F)c3)CC(=O)N2)cc1`?
**A.** % Inhibition: -15%; Z score: 1.66

**Q.** With `NC(=O)c1ccsc1NC(=O)CN1CCCC[C@@H]1CNC(=O)Nc1ccccc1` as the compound, how does the “% Inhibition” value read?
**A.** -7%

**Q.** What about the Z score of the same compound?
**A.** 0.93

**Q.** Which results are given for `Fc1ccc(Cl)cc1CN[C@H]1CCCc2cn[nH]c21`?
**A.** % Inhibition: -11%; Z score: 1.24

**Q.** What does the source list for `COc1ccccc1/C=C/CN1CCC(Cc2nnc(CO)n2C)CC1`?
**A.** % Inhibition: -10%; Z score: 1.44

**Q.** Which results are given for `CCN(C(=O)Nc1cccc2nn(C)nc12)[C@H]1COC[C@@H]1O`?
**A.** % Inhibition: -10%; Z score: 1.78

**Q.** With `O=C(CN1C(=O)COc2ccc(Cl)cc21)N1CCc2ccccc21` as the compound, how does the “% Inhibition” value read?
**A.** -8%

**Q.** And the Z score?
**A.** 1.02

**Q.** How did the “% Inhibition” value turn out when `O=C(NCCc1c[nH]c2ccccc12)OCC1CC1` was run?
**A.** -13%

**Q.** What about the Z score of the same compound?
**A.** 1.65

**Q.** `COc1ccc(N2CCN(c3cc(C)nc(-c4ccc(Cl)cc4)n3)CC2)cc1` was tested. Which “% Inhibition” value did it give?
**A.** -4%

**Q.** What about the Z score of the same compound?
**A.** 0.47

**Q.** With `CCc1nnc2n1C[C@@H](CNc1nc3ccccc3o1)CC2` as the compound, how does the “% Inhibition” value read?
**A.** -6%

**Q.** And the Z score?
**A.** 0.98

**Q.** With `Cn1cnnc1[C@H]1CCCN(c2ncnc3ccccc23)C1` as the compound, how does the “% Inhibition” value read?
**A.** -7%

**Q.** What about the Z score of the same compound?
**A.** 1.12

**Q.** What does the source list for `N#Cc1ccc(N[C@H]2CCCC[C@H]2CCO)nc1`?
**A.** % Inhibition: -6%; Z score: 1.3

**Q.** `O=C([C@@H]1Cc2ccccc2S(=O)(=O)N1)N1CCC(n2cnnc2)CC1` was tested. Which “% Inhibition” value did it give?
**A.** 0%

**Q.** What about the Z score of the same compound?
**A.** 0.05

**Q.** `CC(=O)/C(=N/Nc1ccccc1)N1CCOCC1` was tested. Which “% Inhibition” value did it give?
**A.** 7%

**Q.** And the Z score?
**A.** -1.26

**Q.** Which “% Inhibition” value does the source give for `O=S(=O)(NC(c1ccccc1)c1ccccc1)c1ccc2c(c1)OCCO2` here?
**A.** 2%

**Q.** What about the Z score of the same compound?
**A.** -0.21

**Q.** `CCCN(C)C[C@@H]1CC(F)(F)CN1C1CCN(S(=O)(=O)c2ccccc2)CC1` was tested. Which “% Inhibition” value did it give?
**A.** -6%

**Q.** And the Z score?
**A.** 1.12

**Q.** With `CN1CCO[C@@H](C(=O)N2CCN(Cc3ccccc3)CC2)[C@@H]1c1ccccc1` as the compound, how does the “% Inhibition” value read?
**A.** -15%

**Q.** And the Z score?
**A.** 1.94

**Q.** For `O=C(NCc1ccccc1F)[C@H]1CCCN(c2cnc3nccnc3c2)C1`, which “% Inhibition” value is on record?
**A.** -4%

**Q.** What about the Z score of the same compound?
**A.** 0.79

**Q.** What does the source list for `O=C(O)Cc1c(-c2ccc3c(c2)OCCCO3)nc2ccccc2c1-c1ccccc1`?
**A.** % Inhibition: 4%; Z score: -0.51

**Q.** With `CCN(CC(=O)NCc1cccs1)Cc1ccccc1Cl` as the compound, how does the “% Inhibition” value read?
**A.** -20%

**Q.** What about the Z score of the same compound?
**A.** 2.11

**Q.** Which “% Inhibition” value does the source give for `CN1[C@@H](CO)C[C@@H](CNCc2cnc(N3CCCC3)s2)[C@H]1c1ccccc1F` here?
**A.** -15%

**Q.** What about the Z score of the same compound?
**A.** 2.02

**Q.** How did the “% Inhibition” value turn out when `COCCc1noc(C2(F)CCN(C(=O)c3cc(F)cc(F)c3)CC2)n1` was run?
**A.** -5%

**Q.** What about the Z score of the same compound?
**A.** 0.91

**Q.** What does the source list for `CC(C)CNC(=O)CN1CC[C@H](CCO)C1`?
**A.** % Inhibition: -17%; Z score: 1.53

**Q.** Which “% Inhibition” value does the source give for `CN(C)C1CCCC1Oc1ccccn1` (stereo not given) here?
**A.** -5%

**Q.** And the Z score?
**A.** 0.65

**Q.** `CC(C(=O)N1CCCC1)N1CCCCC1Cn1cncn1` (stereo not given) was tested. Which “% Inhibition” value did it give?
**A.** 0%

**Q.** And the Z score?
**A.** -0.01

**Q.** How did the “% Inhibition” value turn out when `CC1CN(S(=O)(=O)c2cccc(C(=O)NC3CCCc4ccccc43)c2)CC(C)O1` (stereo not given) was run?
**A.** -2%

**Q.** What about the Z score of the same compound?
**A.** 0.33

**Q.** What does the source list for `Oc1cncc(-c2cccc(C(F)(F)F)c2)n1`?
**A.** % Inhibition: -11%; Z score: 1.38

**Q.** Which results are given for `CCCCOc1ccc(CN)cc1OCC`?
**A.** % Inhibition: -5%; Z score: 0.68

**Q.** For `CN=C(NCc1ccccc1)N(C)Cc1ccccc1`, which “% Inhibition” value is on record?
**A.** -6%

**Q.** What about the Z score of the same compound?
**A.** 0.78

**Q.** Which “% Inhibition” value does the source give for `CCN1C[C@H](CN(C)C(=O)Nc2nc3ccccc3s2)Oc2ccccc21` here?
**A.** -8%

**Q.** What about the Z score of the same compound?
**A.** 0.94

**Q.** Which results are given for `CC[C@H](NC(=O)OC(C)(C)C)c1nc(-c2ccsc2)no1`?
**A.** % Inhibition: -4%; Z score: 0.3

**Q.** For `O=S(=O)(CC1CCOCC1)N[C@H]1CCOc2ccc(F)cc21`, which “% Inhibition” value is on record?
**A.** 1%

**Q.** What about the Z score of the same compound?
**A.** -0.16

**Q.** What does the source list for `CN(C)c1ncnc2cc(C(=O)Nc3ccc(F)c(Cl)c3)ccc12`?
**A.** % Inhibition: 9%; Z score: -1.37

**Q.** `Cc1cccc(N(C)S(=O)(=O)CCCS(=O)(=O)N(C)C)c1` was tested. Which “% Inhibition” value did it give?
**A.** -1%

**Q.** And the Z score?
**A.** 0.07
